Seven compounds from PubChem BioAssay (NCI) can be followed below.

Common to all, as to assay: growth of human tumour cells (NCI), 48 h
For test [1], the system named is U251 CNS.
Test [2] concerns MDA-MB-435.
Test [3] concerns A498 renal.
Test [4] relates to LOX IMVI melanoma.
The subject of test [5] is OVCAR-8 ovarian.
Test [6] concerns RXF 393 renal.
For test [7], the system named is MALME-3M melanoma.
The test system of test [8] is MDA-MB-231 breast.
Test [9] concerns HCT-116 colon.
Test [10] has as its system KM12 colon.
Test [11] relates to SN12C renal.
In test [12] the test system is MDA-N.
Test [13] concerns COLO 205 colon.
Test [14] has as its system SR leukemia.
The subject of test [15] is HL-60(TB) leukemia.
Test [16] relates to MCF7 breast.
The subject of test [17] is T-47D breast.
For test [18], the system named is OVCAR-3 ovarian.
The test system of test [19] is HCC-2998 colon.
Test [20] deals with K-562 leukemia.
Test [21] concerns SK-MEL-5 melanoma.
The subject of test [22] is HCT-15 colon.
Test [23] deals with CCRF-CEM leukemia.
The subject of test [24] is SK-MEL-28 melanoma.
The test system of test [25] is OVCAR-5 ovarian.
Test [26] concerns SK-MEL-2 melanoma.
Test [27] relates to UACC-62 melanoma.
For test [28], the system named is NCI-H226 lung.
Test [29] relates to UACC-257 melanoma.
Test [30] relates to SF-295 CNS.
In test [31] the test system is CAKI-1 renal.
The test system of test [32] is UO-31 renal.
For test [33], the system named is NCI-H23 lung.
The subject of test [34] is NCI-H522 lung.
Test [35] deals with OVCAR-4 ovarian.
The subject of test [36] is SNB-75 CNS.
Test [37] has as its system NCI/ADR-RES ovarian.
In test [38] the test system is RPMI-8226 leukemia.

The structures appear in SMILES notation.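 Grown in 96-well plates, cells were treated for 48 hours with each compound at five concentrations. Insufficient inhibition: endpoint recorded as highest concentration tested. At the GI50, growth is halved.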 Some entries of the source have several records that differ or are many. Only these are listed. There may be further records. For part of these data: The tests behind the records often covered other concentration ranges, not given here; some values may only mark the edge of a range. For part of these data: The values listed for one entry are repeated measurements in other runs, samples, wells, individuals or studies. A tag in brackets gives the origin of a value. Letters count within one entry.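 TGI: total growth inhibition.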 A value given as a limit tells only on which side of the number the result lay.

For the compound `C=C1C(C(O)C[C@H](C)C2O[C@@]3(CCCCO3)CCC2C)O[C@@H]2CCC3(CCC(/C=C/[C@@H](C)C4CC(C)=CC5(O4)O[C@H](C[C@](C)(O)C(=O)O)CCC5O)O3)OC2[C@@H]1O` (some centres not stated), the TGI in test [1] is > 1 µM and 3.85 nM; in test [2] it was 50.4 nM and 2.07 nM; in test [3] it was 151 nM and 13.8 nM; in [4] it was > 1 µM and 7.98 nM; in test [5], 201 nM and 19.9 nM; in test [6], 56.8 nM and 3.8 nM. Moreover, the TGI in [7] is 36.8 nM and 2.41 nM; in test [8], 140 nM and 10.1 nM; in [9], 179 nM and 16.5 nM; in test [10], 105 nM and 9.6 nM; in test [11], > 1 µM and 65.9 nM; in [12], 130 nM and 4.31 nM. Further, the TGI in test [13] was 143 nM and 10.1 nM; in [14], > 1 µM and 36.3 nM.

Take `CC(C)S(=O)(=O)ON1C(=O)c2ccc(N(C)C)cc2C1=O`: the TGI in [15] is 1.45 µM and 19.7 µM.

Take `NC1(c2ccc(-c3nc4ccn5c(=O)[nH]nc5c4cc3-c3ccccc3)cc2)CCC1`: the GI50 is 222 nM [sample A, mean of 2 tests] and 3.6 µM [sample B, 1 test] and 11.6 µM [sample C, mean of 2 tests] in test [7]; 26.6 nM [sample A, mean of 3 tests] and 181 nM [sample B, mean of 2 tests] and 485 nM [sample C, mean of 2 tests] in [16]. In addition, the TGI in [17] was 4.6 µM [sample A, mean of 2 tests] and 243 nM [sample B, 1 test] and 17.7 µM [sample C, mean of 2 tests].

Regarding `c1ccc(-c2cccc(-c3ccccn3)n2)nc1`, the TGI in test [18] was 1.39 µM [sample A] and 15.8 µM [sample B]; in test [15] it was 670 nM [sample A] and > 100 µM [sample B]; in [19] it was 1.23 µM [sample A] and 13.9 µM [sample B]; in test [5] it was 1.7 µM [sample A] and 31.2 µM [sample B]; in test [14], 3.13 µM [sample A] and > 100 µM [sample B].

Take `C/C(=C\COc1ccc2ccc(=O)oc2c1)C1=CC(=O)C(C)(C)O1`: the TGI in test [5] was 4.91 µM and 50.4 µM; in [20] it was 5.25 µM and 77.7 µM.

As to `COC(=O)C12OCC34C(CC5C(C)=C(O)C(=O)CC5(C)C3C(O)C1O)OC(=O)C(OC(=O)C=C(C)C)C24` (configuration not stated), the TGI was 260 nM and > 479 µM in test [21]; 2.12 µM and > 500 µM in test [22]; 12.3 nM and > 500 µM in [23]; < 215 nM and > 500 µM in test [19]; 4.98 µM and > 500 µM in test [24]; 922 nM and > 500 µM in test [25]. Besides, the TGI in test [26] was 413 nM and > 500 µM; in test [5] it was 552 nM and > 500 µM; in [27], 331 nM and > 500 µM; in [6], 1.08 µM and > 500 µM; in test [7] it was 291 nM and > 500 µM; in test [9], 318 nM and > 500 µM. For the same compound, the TGI in [28] is 426 nM and > 500 µM; in test [29] it was 543 nM and > 500 µM; in test [30] it was 929 nM and > 500 µM; in test [31], 2.71 µM and > 500 µM; in test [32] it was 2.31 µM and > 500 µM; in test [20], 236 nM and > 500 µM. Moreover, the TGI is 434 nM and > 500 µM in [33]; 780 nM and > 500 µM in test [11]; 655 nM and > 500 µM in test [34]; 1.82 µM and > 500 µM in [35]; 22.3 nM and 493 µM in [36]; 22.9 µM and > 500 µM in test [37]. In test [18], the GI50 is < 215 nM and > 500 µM.

As for `O=C1C=C2C(=CCOC2O)O1` (configuration not stated), the GI50 in [3] was 233 nM [sample A, mean of 2 tests] and 10.4 µM [sample B, 1 test]; in [15], 275 nM [sample A, mean of 5 tests] and 3.81 µM [sample B, 1 test]; in [16] it was 221 nM [sample A, mean of 3 tests] and 2.37 µM [sample B, 1 test]. Besides, the TGI in [3] is 428 nM [sample A, mean of 2 tests] and 23.3 µM [sample B, 1 test]; in test [15] it was 912 nM [sample A, mean of 5 tests] and 10.3 µM [sample B, 1 test]; in test [19], 2.2 µM [sample A] and 24.9 µM [sample B]; in test [38], 901 nM [sample A] and 15.1 µM [sample B].
